Experimental findings from the supplement of paper PMC4604168 (melanoma cell lines) are described below.

The other results are listed elsewhere or left out. Repeats are few or missing, and single values can be far off.
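Further: cell number obtained by counting DAPI-stained nuclei in high-throughput microscope images with image analysis software, screen run in 1,536-well plates.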

The assay concerns C32. As to the kind of experiment: cell count relative to DMSO control; melanoma cells; higher = more viable cells. The settings on record: library dose: low library concentration; 72 h.
`Nc1ncn([C@H]2C[C@H](O)[C@@H](CO)O2)c(=O)n1` [decitabine] + CC(C)CCN1c2nc(Nc3cc(F)c(O)c(F)c3)ncc2N(C)C(=O)C1C [BID1870] (first compound 0.1 µM, partner dose 0.2 µM) returned a cell count of 103%.

As to `Nc1ccn([C@@H]2O[C@H](CO)[C@@H](O)C2(F)F)c(=O)n1` [gemcitabine] + CC(C)CCN1c2nc(Nc3cc(F)c(O)c(F)c3)ncc2N(C)C(=O)C1C [BID1870] (first compound 0.0004 µM, partner dose 0.2 µM), the cell count is 104%. Under `Nc1ncn([C@H]2C[C@H](O)[C@@H](CO)O2)c(=O)n1` [decitabine] + CC1(C)NC(=O)N(c2ccc([N+](=O)[O-])c(C(F)(F)F)c2)C1=O [nilutamide] (first compound 0.1 µM, partner dose 1 µM) stands 115%; under `CC(=O)O[C@@]12CO[C@@H]1C[C@H](O)[C@@]1(C)C(=O)[C@H](O)C3=C(C)[C@@H](OC(=O)[C@H](O)[C@@H](NC(=O)OC(C)(C)C)c4ccccc4)C[C@@](O)([C@@H](OC(=O)c4ccccc4)[C@H]21)C3(C)C` [Docetaxel] + CCc1ccc(CCOc2ccc(CC3SC(=O)NC3=O)cc2)nc1 [pioglitazone] (first compound 0.0001 µM, partner dose 2 µM), 93.3%; under `Nc1ncn([C@H]2C[C@H](O)[C@@H](CO)O2)c(=O)n1` [decitabine] + Cc1cc(N2CCOCC2)cc2[nH]c(-c3c(NC[C@@H](O)c4cccc(Cl)c4)cc[nH]c3=O)nc12 [BMS536924] (first compound 0.1 µM, partner dose 0.2 µM), 101%. With `Nc1ncn([C@H]2C[C@H](O)[C@@H](CO)O2)c(=O)n1` [decitabine] + O=S(=O)(c1ccccc1)N(CC(F)(F)F)c1ccc(C(O)(C(F)(F)F)C(F)(F)F)cc1 [T0901317] (first compound 0.1 µM, partner dose 1.4 µM), the cell count was determined as 103%. For `Nc1ncn([C@H]2C[C@H](O)[C@@H](CO)O2)c(=O)n1` [decitabine] + COc1cc(N2CCC(N3CCN(C)CC3)CC2)ccc1Nc1ncc(Cl)c(Nc2ccccc2S(=O)(=O)C(C)C)n1 [NVP-TAE684] (first compound 0.1 µM, partner dose 0.08 µM), the cell count worked out at 105%.

Consider `CC(=O)c1c(C)c2cnc(Nc3ccc(N4CCNCC4)cn3)nc2n(C2CCCC2)c1=O` [palbociclib] + Oc1nc(-c2ccc(C(F)(F)F)cc2)nc2c1CSCC2 [XAV939] (first compound 0.04 µM, partner dose 2 µM), for which the cell count turned out to be 78.2%.

In turn, `Nc1ccn([C@@H]2O[C@H](CO)[C@@H](O)C2(F)F)c(=O)n1` [gemcitabine] + O=c1cc(-c2cccc3c2Sc2ccccc2S3)oc(N2CCOCC2)c1 [KU55933] (first compound 0.0004 µM, partner dose 1 µM) showed a cell count of 86.9%. Consider `Nc1ncn([C@H]2C[C@H](O)[C@@H](CO)O2)c(=O)n1` [decitabine] + N#Cc1c(O)c2c(-c3ccc(-c4ccccc4O)cc3)csc2[nH]c1=O [A769662] (first compound 0.1 µM, partner dose 2 µM), for which the cell count was 113%. `Nc1nc(F)nc2c1ncn2[C@@H]1O[C@H](CO)[C@@H](O)[C@@H]1O` [fludarabine] + CN(C)S(=O)(=O)c1ccc2c(c1)/C(=C/c1cc3c([nH]1)CCCC3)C(=O)N2 [SU6656] (first compound 0.2 µM, partner dose 0.4 µM): the cell count was 95%.

Consider `Nc1ncn([C@H]2C[C@H](O)[C@@H](CO)O2)c(=O)n1` [decitabine] + CCc1ccc(CCOc2ccc(CC3SC(=O)NC3=O)cc2)nc1 [pioglitazone] (first compound 0.1 µM, partner dose 2 µM), for which the cell count stood at 89.8%.

Turning to `CC(=O)c1c(C)c2cnc(Nc3ccc(N4CCNCC4)cn3)nc2n(C2CCCC2)c1=O` [palbociclib] + CN(NC(=O)CC(=O)NN(C)C(=S)c1ccccc1)C(=S)c1ccccc1 [STA4783] (first compound 0.04 µM, partner dose 0.006 µM), the cell count was found to be 53.3%. `CC(=O)O[C@@]12CO[C@@H]1C[C@H](O)[C@@]1(C)C(=O)[C@H](O)C3=C(C)[C@@H](OC(=O)[C@H](O)[C@@H](NC(=O)OC(C)(C)C)c4ccccc4)C[C@@](O)([C@@H](OC(=O)c4ccccc4)[C@H]21)C3(C)C` [Docetaxel] + c1cc(-c2cnn3cc(-c4ccc(OCCN5CCCCC5)cc4)cnc23)ccn1 [Dorsomorphin] (first compound 0.0001 µM, partner dose 0.4 µM) returned a cell count of 74.6%.

`CO[C@H]1C[C@@H]2CC[C@@H](C)[C@@](O)(O2)C(=O)C(=O)N2CCCC[C@H]2C(=O)O[C@H]([C@H](C)C[C@@H]2CC[C@@H](OCCO)[C@H](OC)C2)CC(=O)[C@H](C)/C=C(\C)[C@@H](O)[C@@H](OC)C(=O)[C@H](C)C[C@H](C)/C=C/C=C/C=C/1C` [everolimus] + COc1cc2ncnc(Nc3ccc(Oc4ccccc4)cc3)c2cc1OC [SrcI1] (first compound 0.02 µM, partner dose 2 µM) gave a cell count of 91.1%.

For `Nc1ncn([C@H]2C[C@H](O)[C@@H](CO)O2)c(=O)n1` [decitabine] + COC(=O)c1sccc1S(=O)(=O)Nc1ccc(Nc2ccccc2)cc1OC [GSK0660] (first compound 0.1 µM, partner dose 1 µM), the cell count worked out at 80.2%. `Nc1nc(F)nc2c1ncn2[C@@H]1O[C@H](CO)[C@@H](O)[C@@H]1O` [fludarabine] + CCN(CC)CCCCNc1ncc2cc(-c3cc(OC)cc(OC)c3)c(NC(=O)NC(C)(C)C)nc2n1 [PD173074] (first compound 0.2 µM, partner dose 0.1 µM) came in with a cell count of 96.5%. `Nc1ccn([C@@H]2O[C@H](CO)[C@@H](O)C2(F)F)c(=O)n1` [gemcitabine] + Oc1nc(-c2ccc(C(F)(F)F)cc2)nc2c1CSCC2 [XAV939] (first compound 0.0004 µM, partner dose 2 µM): the cell count turned out to be 101%.

`Nc1ccn([C@@H]2O[C@H](CO)[C@@H](O)C2(F)F)c(=O)n1` [gemcitabine] + COc1ccc2c(c1)CCC1C2CCC2(C)C(NCCCCCCN3C(=O)C=CC3=O)CCC12 [U73122] (first compound 0.0004 µM, partner dose 0.4 µM) registered a cell count of 70.3%.

As to `CC(=O)c1c(C)c2cnc(Nc3ccc(N4CCNCC4)cn3)nc2n(C2CCCC2)c1=O` [palbociclib] + O=c1cc(-c2cccc3c2Sc2ccccc2S3)oc(N2CCOCC2)c1 [KU55933] (first compound 0.04 µM, partner dose 1 µM), the cell count stood at 69.5%. For the compound `CC(=O)c1c(C)c2cnc(Nc3ccc(N4CCNCC4)cn3)nc2n(C2CCCC2)c1=O` [palbociclib] + Cc1cc([N+](=O)[O-])ccc1NS(=O)(=O)c1cc(Cl)ccc1Cl [FH535] (first compound 0.04 µM, partner dose 1 µM), the cell count turned out to be 71.6%. As to `Nc1ncn([C@H]2C[C@H](O)[C@@H](CO)O2)c(=O)n1` [decitabine] + CCCCCCCCCCCC1=C(O)C(=O)C=C(O)C1=O [Embelin] (first compound 0.1 µM, partner dose 1.2 µM), the cell count was determined as 74.5%.

Consider `Nc1ccn([C@@H]2O[C@H](CO)[C@@H](O)C2(F)F)c(=O)n1` [gemcitabine] + CCCCCCCCCCCC1=C(O)C(=O)C=C(O)C1=O [Embelin] (first compound 0.0004 µM, partner dose 1.2 µM), for which the cell count was determined as 116%. In turn, `Nc1nc(F)nc2c1ncn2[C@@H]1O[C@H](CO)[C@@H](O)[C@@H]1O` [fludarabine] + CC(C)CCN1c2nc(Nc3cc(F)c(O)c(F)c3)ncc2N(C)C(=O)C1C [BID1870] (first compound 0.2 µM, partner dose 0.2 µM) yielded a cell count of 99.2%. The compound `CO[C@H]1C[C@@H]2CC[C@@H](C)[C@@](O)(O2)C(=O)C(=O)N2CCCC[C@H]2C(=O)O[C@H]([C@H](C)C[C@@H]2CC[C@@H](OCCO)[C@H](OC)C2)CC(=O)[C@H](C)/C=C(\C)[C@@H](O)[C@@H](OC)C(=O)[C@H](C)C[C@H](C)/C=C/C=C/C=C/1C` [everolimus] + COc1ccc(-c2ccc3c(N4CCOCC4)nc(N4C[C@@H](C)O[C@@H](C)C4)nc3n2)cc1CO [KU0063794] (first compound 0.02 µM, partner dose 0.02 µM) displayed a cell count of 85.6%. Compound `CC(=O)O[C@@]12CO[C@@H]1C[C@H](O)[C@@]1(C)C(=O)[C@H](O)C3=C(C)[C@@H](OC(=O)[C@H](O)[C@@H](NC(=O)OC(C)(C)C)c4ccccc4)C[C@@](O)([C@@H](OC(=O)c4ccccc4)[C@H]21)C3(C)C` [Docetaxel] + CCN(CC)CCCCNc1ncc2cc(-c3cc(OC)cc(OC)c3)c(NC(=O)NC(C)(C)C)nc2n1 [PD173074] (first compound 0.0001 µM, partner dose 0.1 µM) showed a cell count of 84.7%. The compound `Nc1nc(F)nc2c1ncn2[C@@H]1O[C@H](CO)[C@@H](O)[C@@H]1O` [fludarabine] + CN(NC(=O)CC(=O)NN(C)C(=S)c1ccccc1)C(=S)c1ccccc1 [STA4783] (first compound 0.2 µM, partner dose 0.006 µM) had a cell count of 80.8%.

For `Nc1ncn([C@H]2C[C@H](O)[C@@H](CO)O2)c(=O)n1` [decitabine] + c1cc(-c2cnn3cc(-c4ccc(OCCN5CCCCC5)cc4)cnc23)ccn1 [Dorsomorphin] (first compound 0.1 µM, partner dose 0.4 µM), the cell count was found to be 86.1%.
